From the supplement of paper PMC12217912
This is one part of the list. The full chains were built here from the parent and the listed change. Values near 0.05 are background.

B1: TEV protease; numbered along this chain (parent)
chain: MGESLFKGPRDYNPISSSICHLTNESDGHTTSLYGIGFGPFIITNKHLFRRNNGTLVVQSLHGVFKVKDTTTLQQHLVDGRDMIIIRMPKDFPPFPQKLKFREPQREERICLVTTNFQTKSMSSMVSDTSCTFPSGDGIFWKHWIQTKDGQCGSPLVSTRDGFIVGIHSASNFTNTNNYFTSVPKNFMELLTNQEAQQWVSGWRLNADSVLWGGHKVFMVKPEEPFQPVKEATQL

Variants of: B1
Experiment: raw area under fraction-flipped curve 0-4 h after induction (AUC4h, not background-subtracted), DNA-recorder readout of cleavage of the substrate (dimensionless); higher = more cleavage of the substrate by the protease variant
Details: temperature: 34 °C; time window: 0-4 h after rhamnose induction
Protocol: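 In vivo DNA recorder in E. coli TOP10(DE3) ΔrhaA at 34 °C. Each TEVp single-site mutant (parent TEVp 0) is paired with a single-site variant of the 7-mer TEVs (canonical ENLYFQ|S). The substrate sits between flexible linkers in a Bxb1-sfGFP-TEVs-SsrA fusion, so cleavage stabilises Bxb1 and speeds flipping of a recombination array, read by NGS. The value is the raw area under the fraction-flipped curve over 0-4 h after rhamnose induction (AUC4h), with ≥20 reads per time point. It is not background-subtracted; inactive controls average about 0.047.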
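Further: Bxb1 expression induced with 0.2% (w/v) L-rhamnose at OD600 near 0.5, cultures sampled hourly, flipped fraction per protease–substrate barcode pair counted by paired-end Illumina sequencing.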

Row | Variant | area with substrate ENLAFQS | area with substrate ENLEFQS | area with substrate ENLNFQS | area with substrate ENLPFQS | area with substrate ENLQFQS | area with substrate ENLRFQS | area with substrate ENLSFQS | area with substrate ENLTFQS | area with substrate ENLVFQS | area with substrate ENLWFQS | area with substrate ENLCFQS | area with substrate ENLFFQS | area with substrate ENLGFQS | area with substrate ENLHFQS | area with substrate ENLKFQS | area with substrate ENLDFQS | area with substrate ENLIFQS | area with substrate ENLLFQS | area with substrate ENLMFQS
1 | MGESLFKGPRDYNPISSSICHLTNESDGHTTSLYGIGFGPFIITNKHLFRRNNGTLVVQSLHGVFKVKDTTTLQQHLVDGRDMIIIRMPKDFPPFPQKLKFREPQREERICLVTTNFQTKSMSSMVSDTSCTFPSGDGIFWKHWIQTKDGQCGSPLVSTRDGFIVGIHSASNFTNTNNLFTSVPKNFMELLTNQEAQQWVSGWRLNADSVLWGGHKVFMVKPEEPFQPVKEATQL [Y179L] | 0.0777 | 0.0547 | 0.0648 | 0.0645 | 0.0482 | 0.0658 | 0.0763 | 0.0863 | 0.0652 | 0.0647 | – | – | – | – | – | – | – | – | –
2 | MGESLFKGPRDYNPISSSICHLTNESDGHTTSLYGIGFGPFIITNKHLFRRNNGTLVVQSLHGVFKVKDTTTLQQHLVDGRDMIIIRMPKDFPPFPQKLKFREPQREERICLVTTNFQTKSMSSMVSDTSCTFPSGDGIFWKHWIQTKDGQCGSPLVSTRDGFIVGIHSASNFTNTNNTFTSVPKNFMELLTNQEAQQWVSGWRLNADSVLWGGHKVFMVKPEEPFQPVKEATQL [Y179T] | 0.0569 | 0.0701 | 0.0618 | – | – | – | – | – | – | – | 0.0626 | 0.0846 | 0.0616 | 0.0691 | 0.0395 | – | – | – | –
3 | MGESLFKGPRDYNPISSSICHLTNESDGHTTSLYGIGFGPFIITNKHLFRRNNGTLVVQSLHGVFKVKDTTTLQQHLVDGRDMIIIRMPKDFPPFPQKLKFREPQREERICLVTTNFQTKSMSSMVSDTSCTFPSGDGIFWKHWIQTKDGQCGSPLVSTRDGFIVGIHSASNFTNTNNYFASVPKNFMELLTNQEAQQWVSGWRLNADSVLWGGHKVFMVKPEEPFQPVKEATQL [T181A] | 0.0682 | – | 0.0791 | – | – | 0.047 | 0.0931 | 0.0689 | – | – | 0.0759 | – | – | 0.0846 | – | 0.0643 | 0.0734 | – | –
4 | MGESLFKGPRDYNPISSSICHLTNESDGHTTSLYGIGFGPFIITNKHLFRRNNGTLVVQSLHGVFKVKDTTTLQQHLVDGRDMIIIRMPKDFPPFPQKLKFREPQREERICLVTTNFQTKSMSSMVSDTSCTFPSGDGIFWKHWIQTKDGQCGSPLVSTRDGFIVGIHSASNFTNTNNYFTSFPKNFMELLTNQEAQQWVSGWRLNADSVLWGGHKVFMVKPEEPFQPVKEATQL [V183F] | 0.0691 | 0.0599 | 0.0755 | 0.0705 | – | 0.0802 | 0.0651 | 0.07 | 0.082 | 0.0577 | 0.0526 | 0.0756 | – | 0.0752 | – | 0.0709 | – | – | –
5 | MGESLFKGPRDYNPISSSICHLTNESDGHTTSLYGIGFGPFIITNKHLFRRNNGTLVVQSLHGVFKVKDTTTLQQHLVDGRDMIIIRMPKDFPPFPQKLKFREPQREERICLVTTNFQTKSMSSMVSDTSCTFPSGDGIFWKHWIQTKDGQCGSPLVSTRDGFIVGIHSASNFTNTNNYFTSVPENFMELLTNQEAQQWVSGWRLNADSVLWGGHKVFMVKPEEPFQPVKEATQL [K185E] | 0.0579 | 0.079 | 0.0486 | – | 0.06 | 0.0853 | 0.0641 | 0.0753 | 0.0917 | 0.0742 | 0.0527 | 0.0989 | 0.0722 | 0.0487 | – | 0.0514 | 0.0788 | 0.0606 | –
6 | MGESLFKGPRDYNPISSSICHLTNESDGHTTSLYGIGFGPFIITNKHLFRRNNGTLVVQSLHGVFKVKDTTTLQQHLVDGRDMIIIRMPKDFPPFPQKLKFREPQREERICLVTTNFQTKSMSSMVSDTSCTFPSGDGIFWKHWIQTKDGQCGSPLVSTRDGFIVGIHSASNFTNTNNYFTSVPFNFMELLTNQEAQQWVSGWRLNADSVLWGGHKVFMVKPEEPFQPVKEATQL [K185F] | 0.0709 | 0.0643 | 0.0811 | 0.0681 | 0.0615 | – | 0.0485 | – | – | 0.0685 | – | 0.0764 | – | 0.0654 | 0.0706 | 0.0658 | 0.084 | 0.0776 | 0.161
7 | MGESLFKGPRDYNPISSSICHLTNESDGHTTSLYGIGFGPFIITNKHLFRRNNGTLVVQSLHGVFKVKDTTTLQQHLVDGRDMIIIRMPKDFPPFPQKLKFREPQREERICLVTTNFQTKSMSSMVSDTSCTFPSGDGIFWKHWIQTKDGQCGSPLVSTRDGFIVGIHSASNFTNTNNYFTSVPINFMELLTNQEAQQWVSGWRLNADSVLWGGHKVFMVKPEEPFQPVKEATQL [K185I] | 0.0634 | 0.065 | 0.0732 | 0.0597 | – | – | 0.0675 | – | 0.0846 | 0.096 | 0.0724 | 0.0932 | – | 0.0551 | 0.0772 | 0.0589 | 0.0786 | 0.0496 | 0.111
8 | MGESLFKGPRDYNPISSSICHLTNESDGHTTSLYGIGFGPFIITNKHLFRRNNGTLVVQSLHGVFKVKDTTTLQQHLVDGRDMIIIRMPKDFPPFPQKLKFREPQREERICLVTTNFQTKSMSSMVSDTSCTFPSGDGIFWKHWIQTKDGQCGSPLVSTRDGFIVGIHSASNFTNTNNYFTSVPKNHMELLTNQEAQQWVSGWRLNADSVLWGGHKVFMVKPEEPFQPVKEATQL [F187H] | 0.0665 | 0.0581 | 0.07 | 0.0602 | 0.0688 | – | 0.0536 | – | 0.063 | 0.0691 | 0.0626 | – | – | 0.0597 | 0.0657 | 0.0591 | – | 0.0567 | –
9 | MGESLFKGPRDYNPISSSICHLTNESDGHTTSLYGIGFGPFIITNKHLFRRNNGTLVVQSLHGVFKVKDTTTLQQHLVDGRDMIIIRMPKDFPPFPQKLKFREPQREERICLVTTNFQTKSMSSMVSDTSCTFPSGDGIFWKHWIQTKDGQCGSPLVSTRDGFIVGIHSASNFTNTNNYFTSVPKNNMELLTNQEAQQWVSGWRLNADSVLWGGHKVFMVKPEEPFQPVKEATQL [F187N] | 0.0572 | – | 0.0491 | 0.058 | 0.0516 | 0.0498 | 0.0441 | – | – | 0.0861 | 0.0475 | 0.0874 | 0.0551 | 0.0501 | 0.0509 | 0.0545 | 0.0528 | – | –
